Consider 31 compounds from PubChem BioAssay (NCI).

What is called GI50 is the concentration that inhibits growth by half. The TGI is the concentration giving total growth inhibition. A lower TGI goes with greater sensitivity of the cells.

Each structure is given as a SMILES string. “And” between values parts separate entries of the source, which are not always exact repeats. Equal values may be shown once.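 Results reflect a 48-hour exposure of cells in 96-well plates to compound at five concentrations. The concentration for 50% growth inhibition is given as GI50. TGI denotes the concentration required for complete inhibition of growth.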

For the assay, the system named is NCI-H322M lung. Kind of assay: DTP human tumour cell line panel, 48 h.

On to `CCCC[C@@H]1NC(=O)[C@H](CCCCN)NC(=O)[C@H](CCCNC(=N)N)NC(=O)[C@H](CC(C)C)NC(=O)[C@@H](NC(=O)[C@H](Cc2cccc(Cl)c2)NC(=O)[C@@H]2CCCN2C(=O)[C@@H](NC(C)=O)C(C)C)CCSSC[C@@H](C(=O)N[C@@H](CCCCN)C(=O)N2CCC[C@H]2C(=O)N2CCC[C@H]2C(=O)N[C@@H](CCC(=O)O)C(N)=O)NC(=O)[C@H](Cc2ccccc2)NC(=O)[C@H](CO)NC(=O)[C@H](C)NC(=O)[C@@H]2CCCN2C1=O`, for which the GI50 was over 50 µM and the concentration for total growth inhibition (TGI) was over 50 µM.

`COc1ccc(C2SCC(=O)N2N=C2NC(=O)CC(=O)N2)cc1` (configuration not stated) gave a TGI of over 100 µM.

`COc1cc(OC)cc(N2CCC(c3c(N)nc(N)nc3Cl)CC2)c1` came in with a TGI of over 100 µM.

For `Cc1cc(N(CCCl)CCCl)ccc1C=Nc1cccnc1`, the GI50 was 49 µM and the TGI was over 100 µM.

For `C=C/C(C)=C/[C@H](C)C(=O)C[C@H](O)CC1CC(=O)NC(=O)C1`, the concentration for total growth inhibition (TGI) is over 100 µM.

Compound `CS(=O)(=O)NNS(=O)(=O)c1ccc(Br)cc1` displayed a concentration for total growth inhibition (TGI) of over 100 µM.

As for `N#Cc1c(-c2ccco2)c2c(n(C3OC(CO)C(O)C(O)C3O)c1=S)CCCC2` (configuration not stated), the TGI is over 100 µM.

Turning to `COc1cc2c(-c3nc4cc(Cl)c(F)cc4s3)cc(=O)oc2c(C)c1OC`, the GI50 is 1.84 µM and the concentration for total growth inhibition (TGI) amounted to 3.48 µM.

Consider `O=C1c2ccn(CCCCN3CCOCC3)c2C(=O)c2c1c(O)c1ccccc1c2O`, for which the GI50 is 1.96 µM and the TGI amounted to 8.43 µM.

For the compound `Cn1cc(-c2cc3c(Nc4ccc(CC(=O)Nc5cc(C(C)(C)C)on5)cc4)ncnc3[nH]2)cn1`, the GI50 was 0.637 µM and 0.422 µM; the TGI was 3.13 µM and 2.7 µM.

Turning to `N#CC(c1ccc(O)cc1)N1CCN(C(C#N)c2ccc(O)cc2)CC1` (configuration not stated), the TGI was over 100 µM.

Consider `COc1ccc2c(O)c3[n+](cc2c1OC)CCc1cc2c(cc1-3)OCO2`, for which the TGI was over 100 µM.

As for `CO/C(=N\N=C(/C)C(F)(F)F)c1ccncc1`, the TGI was over 100 µM.

With `CC(C)C1CN1CC(O)Cn1ccnc1[N+](=O)[O-]` (configuration not stated), the total growth inhibition concentration (TGI) was over 100 µM.

As for `COC(=O)C1Cc2c(C)cccc2C1=O` (configuration not stated), the total growth inhibition concentration (TGI) was over 100 µM.

For the compound `CCc1nc2c(O)ccc(O)c2nc1C`, the total growth inhibition concentration (TGI) stood at 32.7 µM.

In turn, `O=C1Nc2ccccc2C(=O)OC(Cc2ccccc2)=Nc2ccccc21` yielded a TGI of over 100 µM.

With `N#CI1OC(=O)c2ccccc21`, the TGI is over 100 µM.

As for `O=C1N[C@H]2c3c(Cl)sc(Cl)c3C(=O)[C@H]2O1`, the TGI was 46.8 µM.

For `CCN(CC)c1ccc(NC(C(=O)c2ccccc2)c2ccccc2)cc1` (configuration not stated), the GI50 is 12.1 µM and the TGI was determined as 26.1 µM.

Regarding `COc1ccc2c(c1)O/C(=C\c1cccc(OCC(=O)Nc3nc4ccccc4s3)c1)C2=O`, the GI50 was over 94.4 µM and the TGI is over 100 µM.

With `O=C1C(=O)c2ccc(Br)cc2-c2cc(Br)ccc21`, the GI50 was 25.9 µM and the TGI is over 100 µM.

Regarding `COC1/C=C/O[C@@]2(C)Oc3c(C)c(O)c4c(O)c(cc(O)c4c3C2=O)NC(=O)/C(C)=C\C=C\[C@H](C)C(O)[C@@H](C)[C@@H](O)[C@@H](C)[C@H](OC(C)=O)[C@@H]1C` (some centres not stated), the GI50 is 15.7 µM and 43.7 µM; the TGI was 29.6 µM and 132 µM.

With `CCC1(O)C=CC(=O)C=C1`, the concentration for total growth inhibition (TGI) was over 100 µM.

Compound `Cc1cccc(C)c1NC(=O)CCC(=O)NNC(=O)c1cc(O)c2ccccc2c1` returned a total growth inhibition concentration (TGI) of over 100 µM.

For the compound `C=CC1CC12C(=O)C1OC2(C)C2C(=O)c3ccccc3C(=O)C12` (configuration not stated), the GI50 is over 43.3 µM and the TGI was over 91.8 µM.

`Cc1cc(-c2ccc(C(=O)C(Cl)(Cl)Cl)[nH]2)on1` had a TGI of over 100 µM.

With `C[C@@H]1O[C@@H](O[C@H]2C[C@@H](O)[C@]3(CO)C4C(CC[C@]3(O)C2)[C@@]2(O)CC[C@H](C3=CC(=O)OC3)[C@@]2(C)C[C@H]4O)[C@H](O)[C@H](O)[C@H]1O` (some centres not stated), the GI50 was 0.0198 µM and the TGI is 0.0948 µM.

`O=C1CCC2(c3ccc(F)cc3)Nc3ccccc3N12` (configuration not stated) came in with a total growth inhibition concentration (TGI) of over 100 µM.

`CCCCCCCCCCCCNC(=O)NCC(OCC)OCC` yielded a TGI of over 10 µM.

Compound `c1cc(-c2cscc2-c2ccsc2)cs1` returned a concentration for total growth inhibition (TGI) of over 100 µM.
